# Assay results: PubChem BioAssay AID1346428 (National Center for Advancing Translational Sciences (NCATS), 2018)
# In all, about 48,000 compounds went through this assay and about 1,200 (2.5%) were called active. Not shown: some 2% with an inconclusive outcome.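 The calls were made as follows: active = activation of at least 60% and not above a set upper limit (about 1 call in 100 departs from these limits); inconclusive = activation of 40% to 60%, or above that upper limit; inactive = activation under 40%.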 The list shows a part of the results.
# Target: Probable G-protein coupled receptor 32 (Homo sapiens) (UniProt O75388)
# Experiment: qHTS for Agonists of Human Resolvin D1 Receptor DRV1; also: 0% is about no effect
# Settings: CHO-K1 GPR32 beta-arrestin PathHunter luminescence, 90 min; at 76.9 µM; hits give high values; zero percent set by DMSO-only wells
# Procedure, shortened: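 Cells are plated overnight, treated with compounds in DMSO for 90 minutes at 37 °C, and developed with PathHunter detection reagent for 1 hour before luminescence is read; signal reflects beta-arrestin binding to GPR32 in engineered CHO-K1 cells.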
# Chain of UniProt O75388 (O75388 whole entry, looked up): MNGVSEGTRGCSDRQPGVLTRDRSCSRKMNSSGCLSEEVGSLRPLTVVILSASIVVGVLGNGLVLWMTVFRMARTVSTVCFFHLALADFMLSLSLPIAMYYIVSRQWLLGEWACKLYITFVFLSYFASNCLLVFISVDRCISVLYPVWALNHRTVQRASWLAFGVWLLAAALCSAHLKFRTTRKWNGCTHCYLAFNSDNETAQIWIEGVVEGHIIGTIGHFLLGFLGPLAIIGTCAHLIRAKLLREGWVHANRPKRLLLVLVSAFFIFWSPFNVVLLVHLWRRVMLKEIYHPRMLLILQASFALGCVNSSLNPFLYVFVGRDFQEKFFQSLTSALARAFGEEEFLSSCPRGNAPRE
row,SMILES,activation
1,COc1cccc(C2C=C(c3ccccc3)Nc3c(C(=O)Nc4ccccc4)cnn32)c1OC (configuration not stated),inactive: -12.3%
2,COc1cc(C(CC(=O)Nc2cccc(C(C)=O)c2)N2Cc3ccccc3C2=O)cc(OC)c1OC (configuration not stated),inactive: 0.844%
3,CCOC(=O)c1c(NC(=O)/C=C/c2ccc(C)cc2)sc(C(C)=O)c1C,inactive: -6.22%
4,O=C(COCc1cc(-c2cccs2)on1)N1CCN(c2ccc(F)cc2)CC1,inactive: -11%
5,CCOc1cccc(NC(=O)c2sc3nc(-c4ccc(F)cc4)ccc3c2N)c1,inactive: 33.7%
6,CCSc1ncc(Cl)c(C(=O)N(Cc2ccccc2)c2ccc(OC)cc2)n1,inactive: -27%
7,COc1cc(CNCCSc2nnnn2C)ccc1OCc1ccc(C)cc1,inactive: 0.146%
8,O=c1c(=O)n(-c2ccccc2)ccn1Cc1c(F)cccc1Cl,inactive: -16.2%
9,COc1cc(C(=O)Nc2ccc(-n3c(C)nc4ccccc4c3=O)cc2)cc(OC)c1OC,inactive: 14%
10,Cc1cc(C)cc(N2CC(c3nnc(NC(=O)c4ccco4)s3)CC2=O)c1 (configuration not stated),inactive: -10.3%
11,Cc1nc2cccnc2n1C1CCN(C(=O)Nc2ccccc2)CC1,inactive: 0.964%
12,O=C(c1ccccc1)N1CCCC(c2nc3c(nnn3Cc3ccc(F)cc3F)c(=O)[nH]2)C1 (configuration not stated),inactive: -1.97%
13,Cc1ccc(-c2noc(-c3ccc(NCc4cccnc4)c([N+](=O)[O-])c3)n2)cc1,inactive: 21.9%
14,CCCCn1c(=NC(=O)c2c(-c3c(F)cccc3Cl)noc2C)c(C(=O)OCC)cc2c(=O)n3ccccc3nc21,inactive: -5.72%
15,Cc1nc(-c2ccc(Cl)cc2)oc1COC(C)(C)C(=O)O,inactive: 13.2%
16,O=c1c2oc3ccccc3c2n(Cc2ccc(F)cc2)c(=O)n1Cc1ccco1,inactive: -7.81%
17,O=C(NCc1cccc(F)c1)c1ccc(CN2CC(=O)N3CCCCC3C2=O)cc1 (configuration not stated),inactive: 2.44%
18,CCOC(=O)C1CCN(C(c2ccc(OCC)cc2)c2c(O)cc(C)n(CCOC)c2=O)CC1 (configuration not stated),inactive: -17.4%
19,COc1ccc(CNS(=O)(=O)c2cc(Br)cc3c2N(C(C)=O)C(C)C3)cc1 (configuration not stated),inactive: 19.3%
20,Cc1ccc(-n2cnc3cc(C(=O)NCc4ccc(F)cc4)ccc32)c(C)c1,inactive: -2.5%
21,CCCCc1ccc(-n2nc3cc(Cl)c(NC(=O)c4ccc(OC)cc4)cc3n2)cc1,inactive: -31.9%

row,SMILES,activation
1,CCOC(=O)c1ccc2nc(C)cc(Nc3ccc(OC(C)C)cc3)c2c1,inactive: 22%
2,CCOC(=O)c1cccc(NS(=O)(=O)c2ccc3[nH]c4c(c3c2)CCCC4)c1,active: 82%
3,Cc1ccc(OC(C)C(=O)N2CCN(CCc3ccncc3)CC2)cc1C (configuration not stated),inactive: 0.702%
4,Cc1cccc(C(=O)NCCc2nc3ccccc3n2Cc2ccc(Cl)cc2)c1,inactive: 17%
5,CC(Sc1nc2c(c(=O)[nH]1)CCCC2)C(=O)Nc1cc(C(F)(F)F)ccc1Cl (configuration not stated),inactive: 24.9%
6,COCCCNC(=O)C1CCC(Cn2c(=O)c3sccc3n(C)c2=O)CC1 (configuration not stated),inactive: 4.17%
7,CCC(CC)C(=O)Nc1ccccc1SCc1cc(=O)c2cccc(C)c2[nH]1,inactive: 13.4%
8,CCOc1ccc(-c2cc3c(=O)n(Cc4nc(-c5ccccc5OCC)oc4C)ccn3n2)cc1Cl,inactive: 13.4%
9,Cc1ccc(Cn2c(C)c(CNCC(C)c3ccccc3)c(C(=O)O)c2C)cc1 (configuration not stated),active: 75.2%
10,Cc1ccc(NC(=O)c2ccc(Cl)cc2Cl)c(C(=O)c2ccccc2)c1,inactive: -20.2%
11,Cc1ccc(NC(=O)CN2CCN(c3ccccc3F)CC2)cc1F,inactive: -8.75%
12,CCOC(=O)C1CCN(c2nc3c(S(=O)(=O)c4ccccc4)nnn3c3ccc(Cl)cc23)CC1,inactive: -9.79%
13,CC1=C(C(=O)Nc2ccccc2)C(c2cccc(Cl)c2)n2nc(SCC(=O)c3ccc(C)cc3)nc2N1 (configuration not stated),inactive: -4.95%
14,O=C(NCc1ccccc1F)C(=O)NCC(c1ccco1)S(=O)(=O)c1cccs1 (configuration not stated),inactive: -9.92%
15,CCOc1ccc(NC(=O)CCCc2nnc3n(C)c(=O)c4sccc4n23)cc1,inactive: -19.4%
16,Cc1cccc(OCC(=O)Nc2ccccc2C(=O)OCc2cc(=O)n3nc(C)sc3n2)c1,inactive: -18.2%
17,Cc1ccc(Cn2c(=O)n(CCCCC(=O)NCc3ccccc3Cl)c(=O)c3ccccc32)cc1,inactive: 10.4%
18,O=c1[nH]c2ccc(NCc3ccc(-c4ccccc4)o3)cc2[nH]1,inactive: 29.5%
19,O=C(Nc1ccc2oc(-c3ccc4ccccc4c3)nc2c1)c1ccc(Cl)c(Cl)c1,inactive: -8.2%
20,CCOc1ccccc1Nc1sc(C(=O)c2ccccc2)c(N)c1S(=O)(=O)c1ccc(C)cc1,inactive: 9.26%
21,COc1ccc(OC)c(NC(=O)c2cn(CC(C)C)c(=O)c3cc(OC)c(OC)cc23)c1,inactive: 12.2%
